The record followed here is PubChem BioAssay AID1508624 (National Center for Advancing Translational Sciences (NCATS), 2021).

SMILES strings stand for the structures. The whole screen tested about 48,000 compounds, of which about 120 (0.25%) were called active. Not shown: some 4% with an inconclusive outcome. The call rests on the fitted dose curve; in most records, active means well fitted activation curve with a large enough effect; inconclusive means small, poorly fitted or top-dose-only effect, or another doubt; inactive means no such curve, though single readings can be large or run the other way. This is one part of the list.
Potency means the concentration at half of the fitted maximal effect.

The nature of this assay: Primary qHTS for Identification of Small Molecule Activators of Huntingtin-Antisense Promoter Activity. Further: nearly all actives have a fitted effect of over 55% in size. Conditions: HEK293 HTT-AS promoter firefly luciferase reporter, 24 h; series mostly up to 57.5 µM; activity change, positive = activation: at the top concentration. The method in brief:
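HEK293 Fluc reporter, 2,500 cells/well, 24 h pre-culture; cpds up to 57.5 uM final, 24 h 37 degrees C; Dual-Glo, 10 min RT; normalized vehicle = 0%, zero RLU = -100%.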
In general terms: Quantitative high-throughput screening tests each substance at several concentrations.
As for `CCOC(=O)c1[nH]c2ccccc2c1NC(=O)c1ccc(OCC)cc1`, the “activity change, positive = activation” value was inactive: -1.26%.

In the case of `Cc1ccc(-n2ncc3c(NCCCn4ccnc4)ncnc32)cc1`, the “activity change, positive = activation” value was inactive: -12.9%.

Regarding `COCCCCC(=NOCCN)c1ccc(C(F)(F)F)cc1`, the “activity change, positive = activation” value is inactive: -34.4%.

Turning to `Cc1ccc(NC(=O)c2cc(-c3cccs3)on2)cc1C`, the Potency was active: 8.91 µM.

On to `CCN1CCN(CCCNC(=O)c2cnn(-c3ccc(C)cc3)c2C2CCN(C(=O)OC(C)(C)C)CC2)CC1`, for which the “activity change, positive = activation” value is inactive: 1.69%.

`Cc1oc2ncn(CC(C)C)c(=O)c2c1C(=O)NCCCN1CCCCC1C` (stereo not given): the “activity change, positive = activation” value was inactive: -3.51%.

Take `COc1cccc(Cn2c(=O)n(CC3CCC(C(=O)N4CCOCC4)CC3)c(=O)c3sccc32)c1` (stereo not given): the “activity change, positive = activation” value is inactive: -16.9%.

As for `Cc1cc(C)c2c(n1)SCC(=O)N2CC(=O)Nc1cccc(C)c1C`, the “activity change, positive = activation” value is inactive: -16.6%.

On to `CCN1CCN(C(=O)c2ccc3c(c2)N(Cc2ccc(Cl)cc2)C(=O)c2ccccc2S3=O)CC1` (stereo not given), for which the “activity change, positive = activation” value is inactive: -15.5%.

With `CCOc1ccc(NC(=O)c2oc3ccccc3c2NC(=O)Cc2cccs2)cc1`, the “activity change, positive = activation” value was inactive: 10.3%.

`CCc1ccc(Cn2c(CNS(=O)(=O)c3ccc4c(c3)CCCC4)nc3cccnc32)cc1`: the “activity change, positive = activation” value was inactive: -23.2%.

Take `CCc1ccc2c(c1)c(=O)c(C(=O)c1ccccc1)cn2CC(=O)Nc1ccc(C)c(Cl)c1`: the “activity change, positive = activation” value was inactive: -14.5%.

With `CCc1ccc2c(c1)c(=O)c(C(=O)c1ccc(C)cc1)cn2CC(=O)Nc1ccccc1C`, the “activity change, positive = activation” value is inactive: -11.7%.

`Cc1cccc(C)c1OCC(=O)Nc1c(C(=O)c2ccccc2)oc2ccccc12`: the “activity change, positive = activation” value is inactive: -13.7%.

With `COc1ccc(-c2nnc(SCC(=O)NCCc3ccccc3)nc2-c2ccc(OC)cc2)cc1`, the “activity change, positive = activation” value was inactive: -1.86%.

Consider `CCc1ccccc1NC(=O)c1ncoc1-c1ccco1`, for which the “activity change, positive = activation” value is inactive: -4.74%.

Regarding `COc1ccc(-c2c(C)nn3c(-c4ccccc4)cc(-c4ccccc4)nc23)cc1`, the “activity change, positive = activation” value was inactive: 6.21%.

In the case of `Cc1ccc(NC(=O)CSc2nc3nccnc3c(=O)n2CCc2c[nH]c3ccccc23)c(C)c1`, the “activity change, positive = activation” value is inactive: -18.7%.

As for `O=C(Cc1ccc(NC(=O)N2CCCCc3ccccc32)cc1)Nc1ccccc1Br`, the “activity change, positive = activation” value was inactive: -35.2%.

As to `Cc1cccc(NC(=O)CN(C)S(=O)(=O)c2cnc[nH]2)c1C`, the “activity change, positive = activation” value is inactive: -9.55%.

Turning to `Cc1ccccc1CN1c2ccccc2-c2nc(SCC(=O)Nc3cc(F)ccc3F)ncc2S1(=O)=O`, the “activity change, positive = activation” value is inactive: -0.501%.

Regarding `Cc1ccc(-n2ncc(C(=O)NCCCN3CCN(C)CC3)c2C2CCN(C(=O)OC(C)(C)C)CC2)cc1`, the “activity change, positive = activation” value is inactive: -3.33%.

Turning to `Cc1cc(C)c(NC(=O)CN2C(=O)CCn3nc(-c4cccn4C)cc32)c(C)c1`, the “activity change, positive = activation” value was inactive: -9.03%.

Consider `CCCCNc1cc(N2CCN(C3CCCCC3)CC2)c2noc3c2c1C(=O)c1ccccc1-3`, for which the “activity change, positive = activation” value was inactive: -7.06%.

In the case of `CCCCC(=O)N1CCN(c2nc3c(C)c(C)ccc3s2)CC1`, the “activity change, positive = activation” value was inactive: -11.6%.

`Cc1cc(C)c(NC(=O)CSc2cn(CC(=O)N3CCOCC3)c3ccccc23)c(C)c1`: the “activity change, positive = activation” value is inactive: -16.9%.

`O=C(Nc1nnc(S(=O)(=O)N2CCOCC2)s1)c1cccc(Br)c1`: the “activity change, positive = activation” value is inactive: -11.2%.

`Cc1nc2c(C(=O)NCCc3ccccc3)c[nH]n2c(=O)c1Cc1ccccc1F`: the “activity change, positive = activation” value is inactive: -20.9%.

`COc1cc(NS(=O)(=O)c2cc3c(cc2C)n(C)c(=O)c(=O)n3C)cc(OC)c1`: the “activity change, positive = activation” value is inactive: -20.2%.

As for `COc1cc(NC(=O)NCCn2nnc3cc(S(=O)(=O)N(C)C)ccc32)cc(OC)c1OC`, the “activity change, positive = activation” value is inactive: 5.26%.

As for `COc1cc(NC(=O)c2cc3cc4ccc(OC)c(Cl)c4nc3s2)cc(OC)c1`, the “activity change, positive = activation” value was inactive: -3.4%.

Turning to `CCC(Sc1ccc2nnc(CCNS(=O)(=O)c3ccc(OC)cc3)n2n1)C(=O)OC` (stereo not given), the “activity change, positive = activation” value is inactive: -7.43%.

Turning to `Cc1ccccc1C(=O)NC1(C(F)(F)F)C(=O)Nc2c1c(=O)[nH]c(=O)n2CCc1ccccc1` (stereo not given), the “activity change, positive = activation” value is inactive: 8.23%.

For the molecule `COc1ccc(-c2nc3c4ccccc4n(CC(=O)Nc4ccc(C(C)=O)cc4)c(=O)n3n2)cc1`, the “activity change, positive = activation” value is inactive: 0.837%.

Consider `Cc1nc2ccc(S(=O)(=O)NCC(=O)Nc3ccc(C)c(Cl)c3)cc2s1`, for which the “activity change, positive = activation” value is inactive: -5.67%.

Turning to `Cc1cc(C)cc(NC(=O)CSc2nc3c(cnn3-c3ccc(F)cc3)c(=O)[nH]2)c1`, the “activity change, positive = activation” value was inactive: -8.69%.

As to `Cc1cc(SCC(=O)Nc2ccc(C(F)(F)F)cc2)nc(=O)[nH]1`, the “activity change, positive = activation” value was inactive: -39.8%.

Turning to `CC(C)C[C@@H](N)C(=O)O`, the “activity change, positive = activation” value was inactive: -4.7% [at 25.1 µM, percent change from vehicle, -100% = no light].

For `Cc1ccc(C)c(N2CCN(C(=O)c3cccn4c(=O)c5ccccc5nc34)CC2)c1`, the “activity change, positive = activation” value was inactive: -16.1%.

On to `CCCCOC(=O)c1ccc(NC(=O)c2cc(=O)c3ccccc3o2)cc1`, for which the “activity change, positive = activation” value is inactive: 0%.

Regarding `O=C(O)CCCn1cc(NC(=O)COc2ccccc2F)cn1`, the “activity change, positive = activation” value is inactive: 4.65%.

For the molecule `CCc1ccc(C(=O)c2cn(CC(=O)Nc3ccc(OC)cc3)c3cc4c(cc3c2=O)OCCO4)cc1`, the “activity change, positive = activation” value was inactive: -8.14%.

With `O=C(Nc1ccc(OC(F)(F)F)cc1)C(NS(=O)(=O)c1cccc2nsnc12)c1ccccc1` (stereo not given), the “activity change, positive = activation” value is inactive: -16.7%.

For the molecule `Cc1ccc(OCCSc2nc3ccccc3n2CC(=O)NC(C)C)cc1`, the “activity change, positive = activation” value is inactive: -17.6%.

For the molecule `O=C(CSc1ncc2c(n1)-c1cc(Cl)ccc1N(Cc1ccccc1)S2(=O)=O)NCc1ccccc1`, the “activity change, positive = activation” value is inactive: -10.7%.

For the molecule `O=C1CSC2(C(=O)N(Cc3c(F)cccc3Cl)c3ccccc32)N1c1ccc(F)c(F)c1` (stereo not given), the “activity change, positive = activation” value is inactive: -19.6%.

Turning to `Cc1ccc(-c2nnn3c2nc(N2CCC(C)CC2)c2ccccc23)cc1`, the “activity change, positive = activation” value was inactive: 12.1%.

With `CCOc1ccc(S(=O)(=O)NCCc2csc3nc(-c4cccc(C)c4)nn23)cc1`, the “activity change, positive = activation” value was inactive: -38.9%.

`Cc1ccc(C(=O)Nc2nnc(S(=O)(=O)N3CCCc4ccccc43)s2)cc1`: the “activity change, positive = activation” value was inactive: 15.3%.

Regarding `COc1ccc(CCNC(=O)c2ccc(CSCc3ccc(C)cc3)o2)cc1OC`, the “activity change, positive = activation” value was inactive: -31.8%.

Regarding `COc1ccc(C(=O)Nc2ccc3nc(N4CCCCC4)cc(C)c3c2)cc1OC`, the “activity change, positive = activation” value was inactive: -19.9%.

As for `COCCCNC(=O)C1CCN(C(=O)c2cc3sccc3n2Cc2ccc(Cl)cc2)CC1`, the “activity change, positive = activation” value was inactive: -35.8%.

For `Cc1cccc(CSc2ccc3nnc(CCNS(=O)(=O)c4ccccc4)n3n2)c1`, the “activity change, positive = activation” value was inactive: -24.4%.

Regarding `CC(=O)N1CCc2c(sc3c2c(=O)n(-c2ccccc2)c(=O)n3CC(=O)c2ccc(Cl)cc2)C1`, the “activity change, positive = activation” value is inactive: -2.53%.

For `O=C(NCc1cccc(F)c1)C1CCN(c2nc3ccccc3nc2C(F)(F)F)CC1`, the “activity change, positive = activation” value is inactive: 14.9%.

Take `COCCNC(=O)CCn1c(=O)c2cc(OC)c(OC)cc2n(CC(=O)Nc2ccc(F)c(Cl)c2)c1=O`: the “activity change, positive = activation” value is inactive: -5.43%.

For the molecule `Cc1cc(C)c(NC(=O)Cn2c(=O)n(-c3cccc(C(F)(F)F)c3)c(=O)c3c(C)c(C)sc32)c(C)c1`, the “activity change, positive = activation” value was inactive: -2.04%.

`O=C(O)c1ccc(Nc2nc3ccccc3c3nncn23)cc1`: the “activity change, positive = activation” value is inactive: 16.8%.

`COc1ccccc1NC(=O)C(Cc1ccccc1)NS(=O)(=O)c1ccc2c(c1)CCN2C(C)=O` (stereo not given): the “activity change, positive = activation” value was inactive: -11.9%.

As for `CC(=O)N1CCOc2cc(S(=O)(=O)NCc3ccccc3Cl)c(C)cc21`, the “activity change, positive = activation” value was inactive: -12.2%.
